The values that follow come from the RNAGym collection of RNA variant scans (doi:10.7554/elife.90254).

The source gives no read counts; variants with many changes may rest on few reads.

B1: LINE1-mini (parent)
chain: GGCAGAGCUCAACACAGCGUGGCAAAGUGGCUGUGGCUAGACUGCC

This series covers variants of B1. The series is described as follows: self-cleavage, relative activity (ratio to wild type); higher = more cleavage; in vitro, sequencing; the parent is a self-cleaving ribozyme.
For the variant G17U A26U G40U, the self-cleavage stood at 0.01.

In the case of G2C C8U C10G C23U U28A C37A A39U, the self-cleavage was determined as 0.

Turning to G30C C31A U38G, the self-cleavage is 0.04.

Turning to A11C C15A A24G A26U, the self-cleavage was found to be 0.01.

In the case of A14G A25U C37G, the self-cleavage worked out at 0.04.

Turning to U9A A11C U34C A41C, the self-cleavage was determined as 0.02.

Turning to U9C C23U G40A, the self-cleavage is 0.02.

In the case of A6U G19U G30U, the self-cleavage was determined as 1.34.

With A12C A14G C23A, the self-cleavage was 0.02.

On to C3U G5C C10U U20A, for which the self-cleavage came to 0.14.

Consider C13U G29A G44A, for which the self-cleavage was 0.07.

For G22A G33C G40A, the self-cleavage turned out to be 0.02.

As to G7C G19A G27U G33U C46A, the self-cleavage came to 0.05.

Take A16C C18A G21C: the self-cleavage amounted to 0.06.

For the variant G2U C8G A12C G19C G36U, the self-cleavage was found to be 0.01.

As to G2U A12C G19A G22A C31G G36A A39U, the self-cleavage stood at 0.01.

For the variant C8U C10U A12C A16U A39G, the self-cleavage was determined as 0.02.

Take C3U A4C G35A: the self-cleavage is 0.53.

For the variant G7A U9G U32A, the self-cleavage worked out at 0.01.

With G5U C18U A24G A25C G36C, the self-cleavage was determined as 0.

Take A4U A12C G44C: the self-cleavage worked out at 0.04.

For the variant C3U A6G G36A, the self-cleavage was determined as 0.1.

On to U20A U32A A39C, for which the self-cleavage was 0.03.

As to C23U G40C G44C, the self-cleavage is 0.02.

Consider G1C C15A C31U, for which the self-cleavage was 0.02.

Turning to G2C C3G G5A A25U, the self-cleavage turned out to be 0.04.

Take G2C U9A C42U: the self-cleavage turned out to be 0.01.

In the case of G22A U28C C31A C37G, the self-cleavage stood at 0.03.

For A6G U9G U28A G44A, the self-cleavage came to 0.04.

For the variant C13U C15A G29A, the self-cleavage came out at 0.22.

For the variant C10G U32A C42A, the self-cleavage was determined as 0.01.

As to G2U C10A G36U C37A U38A A39U, the self-cleavage was determined as 0.01.

Take A6G C8U C15U G19U: the self-cleavage was 0.22.

As to C13G G17C G21C G22U A25U G29C G40C, the self-cleavage stood at 0.04.

As for C10G C13U G22A, the self-cleavage was 0.04.

C3A A6G G17U C45A: the self-cleavage is 0.09.

C8U A14U C18A G36C: the self-cleavage is 0.05.

As for C10A A14U G17C U20A, the self-cleavage turned out to be 0.02.

Take G7C U9A A26U G36C: the self-cleavage is 0.04.

For the variant C13U C18A U20A C23G C37A A41G, the self-cleavage is 0.07.

Consider G2U A6U C23G C37G C46G, for which the self-cleavage amounted to 0.1.

C3G A4U C8U G19A C23U C46A: the self-cleavage amounted to 0.02.

On to A4G A24U G30U U43A, for which the self-cleavage stood at 0.02.

In the case of A4U G17C U34A, the self-cleavage was found to be 0.03.

In the case of A6C U20G G21C, the self-cleavage is 0.14.

On to G2U G7U A11G C18G U32G, for which the self-cleavage was found to be 0.01.

Consider C10A G19A C37A, for which the self-cleavage turned out to be 0.06.

As to G2A C10A A14G C31G C42G, the self-cleavage came out at 0.01.

Regarding G17U G29U U34G, the self-cleavage worked out at 0.02.

With A4C A14C A24C C45G, the self-cleavage was 0.04.

As to A12G A16U C18A A24G A41C C45U, the self-cleavage stood at 0.02.

Consider A12C G36A A39U C42U, for which the self-cleavage was determined as 0.03.

On to G30A G36U C46G, for which the self-cleavage was 0.01.

With C3A G5A G27U G35C, the self-cleavage was 0.26.

Regarding G2C C3G A6G G21C G27U A39G, the self-cleavage was 0.05.

Take C15G G21U A26G C42A: the self-cleavage stood at 0.01.

As for A11G C13G C15U G17A G33A U38A, the self-cleavage is 0.02.

As to G7A A16U G19C G29U, the self-cleavage was 0.09.

Take G2A C10A G21U A24G U38C: the self-cleavage came out at 0.17.

For C8A C10U C31A C46A, the self-cleavage came to 0.09.

In the case of A11U G22U A25U U28A G36C C37G C45U, the self-cleavage turned out to be 0.

G21A A24C C42A: the self-cleavage turned out to be 0.06.

As for C10U C13A A14C G30U, the self-cleavage came to 0.02.

G19A G21C G30U U32G G35U: the self-cleavage is 0.03.

Consider G5A G21U A24C C46U, for which the self-cleavage came to 0.09.

As to G1A C13G U28G C31U, the self-cleavage was 0.07.

As to G1A G5C G7C G19A U34C G36U, the self-cleavage turned out to be 0.14.

As to G5C C13A G35U, the self-cleavage came to 0.1.

For G17U G21U U34G G36U, the self-cleavage came to 0.01.

With G5U G22U G29U A39U, the self-cleavage stood at 0.2.

For C13A G19A C31A G36U G44C, the self-cleavage stood at 0.1.

As to C13A A39G G40U, the self-cleavage was 0.27.

For A6U G21U C46A, the self-cleavage amounted to 0.65.

With G27C C37G C42U, the self-cleavage is 0.

Consider A4U A24G G33C, for which the self-cleavage stood at 0.04.

In the case of U32C G35U C37U, the self-cleavage is 0.05.

As for C8U A11C G40U G44U, the self-cleavage was 0.

Take U9G C42A C46G: the self-cleavage was determined as 0.31.

Turning to G1A C3G A6G A12G U20G G44C C45U, the self-cleavage stood at 0.01.

Take U20G C37U C42U: the self-cleavage came to 0.01.

On to G17A G22C C23G G27C G30U U34A A39G, for which the self-cleavage turned out to be 0.01.

Turning to G17C G19A G22U G35U G44A, the self-cleavage turned out to be 0.02.

On to U28C C31U A39G, for which the self-cleavage was 0.03.

As for A6U C18U G19C, the self-cleavage came out at 0.25.

Regarding U9A A16C U20C, the self-cleavage turned out to be 0.09.

Regarding U20A C31A U38G, the self-cleavage was 0.01.

Consider U20C U28A C31G G44U, for which the self-cleavage turned out to be 0.03.

G5A G30C G33C: the self-cleavage is 0.04.

Consider C10U G29U U38G, for which the self-cleavage was determined as 0.02.

As for C15G A25G G30U G33U, the self-cleavage was 0.03.

As to A4C C8U C13G C18U U38A, the self-cleavage was 0.09.

In the case of G5U G21U A26U A39G G40U, the self-cleavage was found to be 0.2.

Consider C3U A12U U38A A39G G40C C45G, for which the self-cleavage came to 0.03.

Turning to C15U A26C C31A G44U C45U, the self-cleavage worked out at 0.03.

C31G G36U U38A: the self-cleavage came out at 0.01.

For the variant A12U A16G G19C A26G, the self-cleavage worked out at 0.04.

As to A4G C15G A16U C18U G21A C31A G33C C37G, the self-cleavage was determined as 0.03.

Regarding G30A C31U C37A A41G, the self-cleavage turned out to be 0.05.

As for A4G G19C G22U A25U U38C G40C, the self-cleavage came out at 0.1.

For G1C C8U C10U C31U G36C, the self-cleavage stood at 0.02.

Take C15U C31U G40C C42U: the self-cleavage was 0.38.

With G5C C18G G21A C23U U43A, the self-cleavage came to 0.02.

In the case of G2C G27C G30A, the self-cleavage amounted to 0.27.

On to A12U A26G G40C, for which the self-cleavage amounted to 0.01.

As for G5C C15U A16U C18A G29U A41C, the self-cleavage worked out at 0.01.

With A6G C10A C46A, the self-cleavage came out at 0.

As to C3A A26U G30A G36U G40A, the self-cleavage was 0.06.

Turning to G1A A16C A24G G36C, the self-cleavage is 0.02.

In the case of C3U C18G C23A G27A, the self-cleavage was determined as 1.14.

In the case of U9C C13G A16G C23A C42A, the self-cleavage worked out at 0.

Turning to C10U A14C C15A A16U A39G, the self-cleavage is 0.01.

Regarding G5A A16U U32C G33U G35C A39G, the self-cleavage was found to be 0.04.

With G2A C3U G35U G40U, the self-cleavage came to 0.1.

For the variant C3U C15U A25U A26C, the self-cleavage was found to be 0.28.

Regarding G2U C37A G40A, the self-cleavage was 0.04.

Take G1U C3G G40A: the self-cleavage was 0.02.

On to U9G C18A G22A U43G, for which the self-cleavage came out at 0.05.

Turning to G2U C13A A26C G36C, the self-cleavage stood at 0.07.

G2A A24G C46A: the self-cleavage is 0.77.

For the variant G5C C15U C46U, the self-cleavage was 0.07.

Regarding G7U A16U G29U C31A, the self-cleavage is 0.05.

Regarding A14U C23G G27A U38C A39U, the self-cleavage is 0.07.

Turning to C31G A41C G44A, the self-cleavage is 0.05.

In the case of U9C G17A C18G G36U, the self-cleavage stood at 0.03.

For G2C A4U C45G, the self-cleavage was 0.05.

Regarding A26U G40C A41C, the self-cleavage is 0.05.

Turning to C23A G29U U32A C46A, the self-cleavage stood at 0.13.

As for G29U C31G C37A, the self-cleavage amounted to 0.21.

With C3U C15U G33C, the self-cleavage came to 0.01.

Regarding C8G A14G C23A C31U, the self-cleavage turned out to be 0.02.

Regarding C15G C45A C46A, the self-cleavage stood at 0.01.

As to A4C G17C U32G, the self-cleavage was found to be 0.07.

Turning to A16U G21C U34A G35U, the self-cleavage stood at 0.02.

For C13U A25G U32C, the self-cleavage is 0.09.

C10G G33U U34G G40C: the self-cleavage was found to be 0.01.

For C3G A26G G35A G40U, the self-cleavage was 0.02.

Consider C10G C18U G21U, for which the self-cleavage is 0.4.

For the variant C3U C23G C37U, the self-cleavage turned out to be 0.02.

As for C3A A4C G17C A24C, the self-cleavage worked out at 0.53.

For the variant C8G G17A C45A, the self-cleavage came to 0.02.

Consider U9A A11C C15U G29A G36A C42G, for which the self-cleavage worked out at 0.

On to G7A U20G C23A G30C C46A, for which the self-cleavage is 0.16.

With A6G C8G C10A A12U C23A A24G C37U, the self-cleavage came out at 0.01.

In the case of C13G U20A A26C G30C, the self-cleavage was determined as 0.11.

Consider C3U C8U A12U C13A, for which the self-cleavage turned out to be 0.06.

Regarding A6C A24U U32C, the self-cleavage came out at 0.13.

In the case of C18A U32G C45U, the self-cleavage came out at 0.04.

For C10U G21A C31A G35U, the self-cleavage was found to be 0.02.

In the case of C3A A4C G22A C42A C45G, the self-cleavage stood at 0.07.

On to C13G A24C G29C, for which the self-cleavage was found to be 0.05.

Regarding G17U U38A C45G, the self-cleavage was found to be 0.03.

Regarding A4G G7U G17A, the self-cleavage was determined as 0.38.

In the case of A12C G17A C31U G36C C37G, the self-cleavage was determined as 0.01.

With A4G A11U A12C C18A U20C G40A, the self-cleavage turned out to be 0.

In the case of G7C C37U C42A, the self-cleavage amounted to 0.

Regarding C15U A26U U43C, the self-cleavage came out at 0.08.

For the variant C10A A14U A24C, the self-cleavage was found to be 0.04.

Take G22U A25G C31U U34C: the self-cleavage was 0.03.

On to A6G A14U G30U U34A, for which the self-cleavage came out at 0.03.

Consider G2C C37G C46A, for which the self-cleavage came to 0.01.

As to G17A C18G G27U U43A, the self-cleavage turned out to be 0.09.

Take G19U A41U C42G U43C: the self-cleavage amounted to 0.

On to G33U G36A C46A, for which the self-cleavage was found to be 0.04.

Take U20A U32A C46A: the self-cleavage turned out to be 0.02.

With G7C A24U C37G U38A G40A, the self-cleavage amounted to 0.38.

G5A A12C G40C: the self-cleavage is 0.

A6G C13A C23A: the self-cleavage was determined as 0.1.
